Out of some 3,200 compounds screened, about 300 (9.4%) showed activity. This is a selection; strong and weak results do not stand in their true shares.

The assay has as its system A673/TR/shEF. As to the kind of experiment: cell viability (LOESS-normalised, relative to median of negative controls) (log2 ratio); higher = more viable cells (less compound effect), active = hit call of the paper (over 3 MAD below the median). Particulars: treatment time: 72 h. An outline of the steps: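 For three days, A673/TR/shEF Ewing sarcoma cells in 384-well plates (1,500 per well) were treated with library compounds at two or more concentrations or with DMSO controls, after doxycycline had been added or withheld 24 h beforehand to induce EWS-FLI1 shRNA knockdown. Viability was read by CellTiter-Glo luminescence on an Envision reader. The data were LOESS-corrected per plate, divided by the median of negative controls and log2-transformed.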

[1] abbreviates: 0.25 µM, library screen: screen1, EWS-FLI1 expression: high (no doxycycline).
Setting [2] is: 0.25 µM, library screen: screen1, EWS-FLI1 expression: low (doxycycline-induced shRNA knockdown).
[3] abbreviates: 2.5 µM, library screen: screen1, EWS-FLI1 expression: high (no doxycycline).
The mark [4] stands for this setting: 2.5 µM, library screen: screen1, EWS-FLI1 expression: low (doxycycline-induced shRNA knockdown).
Where [5] appears, read: 0.103 µM, library screen: screen3, EWS-FLI1 expression: high (no doxycycline).
Setting [6] is: 0.103 µM, library screen: screen3, EWS-FLI1 expression: low (doxycycline-induced shRNA knockdown).
Setting [7] is: 0.308 µM, library screen: screen3, EWS-FLI1 expression: high (no doxycycline).
Setting [8] is: 0.308 µM, library screen: screen3, EWS-FLI1 expression: low (doxycycline-induced shRNA knockdown).
[9] abbreviates: 0.926 µM, library screen: screen3, EWS-FLI1 expression: high (no doxycycline).
The mark [10] stands for this setting: 0.926 µM, library screen: screen3, EWS-FLI1 expression: low (doxycycline-induced shRNA knockdown).
[11] abbreviates: 2.8 µM, library screen: screen3, EWS-FLI1 expression: high (no doxycycline).
The mark [12] stands for this setting: 2.8 µM, library screen: screen3, EWS-FLI1 expression: low (doxycycline-induced shRNA knockdown).
Where [13] appears, read: 8.3 µM, library screen: screen3, EWS-FLI1 expression: high (no doxycycline).
Where [14] appears, read: 8.3 µM, library screen: screen3, EWS-FLI1 expression: low (doxycycline-induced shRNA knockdown).
Where [15] appears, read: 25 µM, library screen: screen3, EWS-FLI1 expression: high (no doxycycline).
Where [16] appears, read: 25 µM, library screen: screen3, EWS-FLI1 expression: low (doxycycline-induced shRNA knockdown).

Regarding `CC(=O)O[C@H]1C[C@@H](OC(C)=O)C(C)(C)C2C[C@@H](OC(C)=O)[C@@]3(C)C4=CC(=O)O[C@@H](c5ccoc5)[C@]4(C)CCC3[C@]21C` (stereo partly drawn), the “cell viability (log2)” value is inactive: 0.0506 under setting [1], inactive: 0.0595 under setting [2], active: -0.853 under setting [3] and active: -0.345 under setting [4].

As to `Cn1nnc2c(C(N)=O)ncn2c1=O`, the “cell viability (log2)” value is inactive: 0.0436 under setting [5]; inactive: 0.0168 under setting [6]; inactive: 0.0839 under setting [7]; inactive: 0.007 under setting [8]; inactive: 0.0171 under setting [9]; inactive: 0.0628 under setting [10]. Also, the “cell viability (log2)” value is, setting by setting: under setting [11], inactive: 0.0167; under setting [12], inactive: 0.034; under setting [13], inactive: 0.0409; under setting [14], inactive: 0.0929; under setting [15], inactive: -0.0728; under setting [16], inactive: 0.0977.

Turning to `O=P(O)(O)C(O)c1ccc2ccccc2c1` (stereo not drawn), the “cell viability (log2)” value is, setting by setting: (0.025 µM, library screen: screen1, EWS-FLI1 expression: high (no doxycycline)) inactive: 0.0997; (0.025 µM, library screen: screen1, EWS-FLI1 expression: low (doxycycline-induced shRNA knockdown)) inactive: 0.0649; under setting [1], inactive: 0.143; under setting [2], inactive: -0.0248; under setting [3], inactive: 0.0554; under setting [4], inactive: 0.0311. Also, the “cell viability (log2)” value by setting is: (25 µM, library screen: screen1, EWS-FLI1 expression: high (no doxycycline)) inactive: 0.0292; (25 µM, library screen: screen1, EWS-FLI1 expression: low (doxycycline-induced shRNA knockdown)) inactive: 0.0551.

Take `COc1ccc(CCC(=O)c2c(O)cc(O[C@@H]3O[C@H](CO)[C@@H](O)[C@H](O)[C@H]3O[C@@H]3O[C@@H](C)[C@H](O)[C@@H](O)[C@H]3O)cc2O)cc1O`: the “cell viability (log2)” value is inactive: 0.0959 under setting [1], inactive: 0.0186 under setting [2], inactive: 0.12 under setting [3] and inactive: -0.113 under setting [4].

Turning to `C[C@]12CC[C@H](O)CC1=CC[C@@H]1[C@@H]2CC[C@]2(C)C(c3cccnc3)=CC[C@@H]12`, the “cell viability (log2)” value is inactive: 0.0559 under setting [5]; inactive: 0.0561 under setting [6]; inactive: 0.0533 under setting [7]; inactive: 0.034 under setting [8]; inactive: 0.0873 under setting [9]; inactive: 0.0578 under setting [10]. In addition, the “cell viability (log2)” value under setting [11] was inactive: 0.0754; the “cell viability (log2)” value under setting [12] is inactive: 0.0545; the “cell viability (log2)” value under setting [13] is inactive: 0.0366; the “cell viability (log2)” value under setting [14] is inactive: 0.0563; the “cell viability (log2)” value under setting [15] is inactive: -0.00605; the “cell viability (log2)” value under setting [16] was inactive: 0.0808.

On to `CC(C)(C)CC(C)(C)c1ccc(OCCOCC[N+](C)(C)Cc2ccccc2)cc1`, for which the “cell viability (log2)” value under setting [1] is inactive: 0.176, the “cell viability (log2)” value under setting [2] was inactive: 0.133, the “cell viability (log2)” value under setting [3] is inactive: 0.0883 and the “cell viability (log2)” value under setting [4] was inactive: 0.0827.

`C=CC[N+]1([C@H]2C[C@H]3[C@@H]4CC[C@H]5C[C@H](O)[C@@H](N6CCOCC6)C[C@]5(C)[C@H]4CC[C@]3(C)[C@H]2OC(C)=O)CCCC1`: the “cell viability (log2)” value by setting is: under setting [5], inactive: 0.0408; under setting [6], inactive: -0.0481; under setting [7], inactive: 0.0335; under setting [8], inactive: -0.00312; under setting [9], inactive: -0.0495; under setting [10], inactive: 0.0576. Besides, the “cell viability (log2)” value was inactive: 0.0125 under setting [11]; inactive: 0.0267 under setting [12]; inactive: 0.00475 under setting [13]; inactive: 0.0403 under setting [14]; inactive: -0.0274 under setting [15]; inactive: 0.0195 under setting [16].

In the case of `CC(C)(C)NC(=O)[C@H]1CC[C@H]2[C@@H]3CC[C@H]4NC(=O)C=C[C@]4(C)[C@H]3CC[C@]12C`, the “cell viability (log2)” value under setting [5] is inactive: -0.0752; the “cell viability (log2)” value under setting [6] is inactive: 0.0317; the “cell viability (log2)” value under setting [7] was inactive: 0.0461; the “cell viability (log2)” value under setting [8] is inactive: 0.107; the “cell viability (log2)” value under setting [9] was inactive: 0.0597; the “cell viability (log2)” value under setting [10] was inactive: 0.034. For the same compound, the “cell viability (log2)” value is, setting by setting: under setting [11], inactive: 0.146; under setting [12], inactive: 0.0984; under setting [13], inactive: 0.112; under setting [14], inactive: 0.0282; under setting [15], inactive: 0.142; under setting [16], inactive: 0.00216.

These data come from the supplement of paper PMC6089552.
